The list shows a part of the results. These are noisy estimates, calculated here from bound and input reads.
These sequences were tested against T1, Pho4 (S. cerevisiae) (UniProt P07270) (assay: relative binding free energy (BET-seq); higher = weaker binding). Conditions: reference: library average.
T1 sequence: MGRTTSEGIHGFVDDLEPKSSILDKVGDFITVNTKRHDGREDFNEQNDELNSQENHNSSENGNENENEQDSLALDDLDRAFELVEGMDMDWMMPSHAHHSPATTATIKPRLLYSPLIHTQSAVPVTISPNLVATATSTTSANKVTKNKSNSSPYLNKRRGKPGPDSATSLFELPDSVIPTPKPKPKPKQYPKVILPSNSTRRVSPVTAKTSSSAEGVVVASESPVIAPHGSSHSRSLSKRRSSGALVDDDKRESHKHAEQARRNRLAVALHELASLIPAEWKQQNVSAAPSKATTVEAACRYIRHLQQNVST
In the case of CAGGGCACGTGTGGTG, the “relative binding free energy” value is reported as -0.335 kJ/mol. With GTCAGCACGTGTTGGA the “relative binding free energy” value was 0.46 kJ/mol. ACGGGCACGTGGGTGC was tested, and the “relative binding free energy” value was -0.46 kJ/mol. For CGTTTCACGTGATGAG, the “relative binding free energy” value was 1.55 kJ/mol. In the case of CAGGTCACGTGGGCTG, the “relative binding free energy” value is reported as 0 kJ/mol. For GTATACACGTGGGGGT, the “relative binding free energy” value was -0.377 kJ/mol. In the case of CGCGGCACGTGTGTTT, the “relative binding free energy” value is reported as -0.586 kJ/mol. In the case of GGCGGCACGTGGCTGT, the “relative binding free energy” value is reported as -0.795 kJ/mol. In the case of TTACACACGTGGTGGA, the “relative binding free energy” value is reported as -0.293 kJ/mol. For AGATACACGTGGTCTT, the “relative binding free energy” value was 0.126 kJ/mol. For GTCGTCACGTGGATTT, the “relative binding free energy” value was 0.167 kJ/mol. In the case of TAGTCCACGTGATTTG, the “relative binding free energy” value is reported as 0.46 kJ/mol. In the case of CTTAGCACGTGGGCGG, the “relative binding free energy” value is reported as -1.34 kJ/mol. In the case of TGTATCACGTGTTCAG, the “relative binding free energy” value is reported as 0.544 kJ/mol. TTCCTCACGTGTTGTT was tested, and the “relative binding free energy” value was 0.502 kJ/mol. With GACGTCACGTGATTTG the “relative binding free energy” value was 1.97 kJ/mol. With GTGTTCACGTGTAACG the “relative binding free energy” value was 1.3 kJ/mol. In the case of TTTAACACGTGTGTGT, the “relative binding free energy” value is reported as -0.126 kJ/mol. For CGGTGCACGTGTAAGT, the “relative binding free energy” value was 0.837 kJ/mol. For AGTTGCACGTGGACCG, the “relative binding free energy” value was 0.293 kJ/mol. With GATGGCACGTGGGGGT the “relative binding free energy” value was -0.544 kJ/mol. In the case of GGGGGCACGTGATGTG, the “relative binding free energy” value is reported as 0 kJ/mol. In the case of CCGGACACGTGGGTGG, the “relative binding free energy” value is reported as -0.126 kJ/mol. TTATCCACGTGGGCGT was tested, and the “relative binding free energy” value was -0.209 kJ/mol. For AAAGTCACGTGTTTTT, the “relative binding free energy” value was 0.586 kJ/mol. AATGCCACGTGGTGTA was tested, and the “relative binding free energy” value was -0.753 kJ/mol. For TTCGGCACGTGGGGGC, the “relative binding free energy” value was -0.962 kJ/mol. With TGTAGCACGTGGGAGC the “relative binding free energy” value was -0.586 kJ/mol. For GATGTCACGTGTAATG, the “relative binding free energy” value was 0.586 kJ/mol. For GTATGCACGTGTGAGT, the “relative binding free energy” value was 0.335 kJ/mol. TTTTCCACGTGATTAT was tested, and the “relative binding free energy” value was 0.251 kJ/mol. For TCTTGCACGTGGGTAG, the “relative binding free energy” value was -0.251 kJ/mol. For GGCGGCACGTGTTCGG, the “relative binding free energy” value was 0.209 kJ/mol. ATTAACACGTGGGTGC was tested, and the “relative binding free energy” value was -0.669 kJ/mol. In the case of TCAATCACGTGTATAT, the “relative binding free energy” value is reported as 0.837 kJ/mol. For AGATGCACGTGGTGTC, the “relative binding free energy” value was -0.251 kJ/mol. TGATACACGTGGATTT was tested, and the “relative binding free energy” value was 0.711 kJ/mol. In the case of CTTAACACGTGGCGTG, the “relative binding free energy” value is reported as -0.251 kJ/mol. With GCGTGCACGTGGCCGG the “relative binding free energy” value was -0.544 kJ/mol. In the case of TAGTTCACGTGGCGGG, the “relative binding free energy” value is reported as 0.753 kJ/mol. For ATGTACACGTGGCGGG, the “relative binding free energy” value was 0 kJ/mol. GGAAGCACGTGGGTCA was tested, and the “relative binding free energy” value was -0.837 kJ/mol. With ATCGGCACGTGGTTGA the “relative binding free energy” value was -0.92 kJ/mol. ATCAGCACGTGAGGGT was tested, and the “relative binding free energy” value was 0.293 kJ/mol. For AGGGTCACGTGAGATA, the “relative binding free energy” value was 1.63 kJ/mol. GATTGCACGTGCGGGT was tested, and the “relative binding free energy” value was -0.167 kJ/mol. GGATGCACGTGAGATA was tested, and the “relative binding free energy” value was 0.879 kJ/mol. With TTCTACACGTGAGGGT the “relative binding free energy” value was 1 kJ/mol. With GGGAGCACGTGGTATA the “relative binding free energy” value was -1.05 kJ/mol. For AGTGTCACGTGATGTG, the “relative binding free energy” value was 0.837 kJ/mol. With AGGGACACGTGGACGG the “relative binding free energy” value was 0.46 kJ/mol. With GCGAGCACGTGTGGGG the “relative binding free energy” value was -0.377 kJ/mol. AGCATCACGTGTGTTT was tested, and the “relative binding free energy” value was 0.628 kJ/mol. With TTGCGCACGTGGTTTA the “relative binding free energy” value was -0.669 kJ/mol. In the case of ATGGTCACGTGTTTTT, the “relative binding free energy” value is reported as 0.711 kJ/mol. With CGTTGCACGTGGTAGT the “relative binding free energy” value was -0.711 kJ/mol. In the case of GTGAGCACGTGCATGG, the “relative binding free energy” value is reported as -0.92 kJ/mol. CTTGTCACGTGTGAAA was tested, and the “relative binding free energy” value was 0.879 kJ/mol. GTGCGCACGTGTGTTA was tested, and the “relative binding free energy” value was -0.628 kJ/mol. In the case of CTTAGCACGTGTAGGT, the “relative binding free energy” value is reported as -0.377 kJ/mol. TGCGACACGTGGGGGG was tested, and the “relative binding free energy” value was -0.795 kJ/mol. ATACTCACGTGTTAGG was tested, and the “relative binding free energy” value was 1.42 kJ/mol. ATCGGCACGTGTTGCG was tested, and the “relative binding free energy” value was -0.628 kJ/mol. In the case of TTACTCACGTGTAAGT, the “relative binding free energy” value is reported as 0.628 kJ/mol. For AATTTCACGTGGGTGT, the “relative binding free energy” value was 0.92 kJ/mol. With GTGTGCACGTGGGTCC the “relative binding free energy” value was -0.544 kJ/mol. GACAGCACGTGAGTGG was tested, and the “relative binding free energy” value was 1.05 kJ/mol. In the case of TGAGGCACGTGGACGC, the “relative binding free energy” value is reported as -0.418 kJ/mol. With TTCGACACGTGGGCGG the “relative binding free energy” value was -0.628 kJ/mol. For CTAGGCACGTGTTGGA, the “relative binding free energy” value was -0.753 kJ/mol. For GTAGGCACGTGATATG, the “relative binding free energy” value was 0.251 kJ/mol. In the case of TTATTCACGTGTCGCT, the “relative binding free energy” value is reported as 0.879 kJ/mol. For ATGTGCACGTGTGTGG, the “relative binding free energy” value was 0 kJ/mol. For TGGAGCACGTGTGCCA, the “relative binding free energy” value was 0.251 kJ/mol. GGGGTCACGTGCAGTT was tested, and the “relative binding free energy” value was 0.711 kJ/mol. For TGCAACACGTGAGGGG, the “relative binding free energy” value was 0.544 kJ/mol. With TTATTCACGTGGGGTA the “relative binding free energy” value was 0.293 kJ/mol. With CTGAGCACGTGTGGTT the “relative binding free energy” value was -0.711 kJ/mol. For TTATACACGTGAAGGG, the “relative binding free energy” value was 1.3 kJ/mol. In the case of TTAAGCACGTGTAGAT, the “relative binding free energy” value is reported as 0.418 kJ/mol. With AGTGCCACGTGGTATG the “relative binding free energy” value was -0.335 kJ/mol. With GTGTGCACGTGTTCGA the “relative binding free energy” value was 0.209 kJ/mol. With GGATTCACGTGTACGG the “relative binding free energy” value was 1.26 kJ/mol. In the case of AAATGCACGTGTTGTA, the “relative binding free energy” value is reported as -0.0418 kJ/mol. In the case of GTTTTCACGTGTGTAG, the “relative binding free energy” value is reported as 1.34 kJ/mol. With TAGTGCACGTGAGCTG the “relative binding free energy” value was 0.502 kJ/mol. For ACGGACACGTGGTATG, the “relative binding free energy” value was -0.377 kJ/mol. GGTGGCACGTGGCGAT was tested, and the “relative binding free energy” value was -0.92 kJ/mol. In the case of TTGGACACGTGTGCGT, the “relative binding free energy” value is reported as 0.126 kJ/mol. In the case of TTTAACACGTGAATTG, the “relative binding free energy” value is reported as 1.05 kJ/mol. With AGTTTCACGTGGAAAT the “relative binding free energy” value was 0.962 kJ/mol. With CTTGACACGTGTGGCT the “relative binding free energy” value was 0 kJ/mol. For TGCGCCACGTGGGGGA, the “relative binding free energy” value was -0.879 kJ/mol. TCGTGCACGTGAAAGG was tested, and the “relative binding free energy” value was 1 kJ/mol. In the case of TGCATCACGTGGTGAT, the “relative binding free energy” value is reported as 0.293 kJ/mol. In the case of GTTAACACGTGAGATG, the “relative binding free energy” value is reported as 1.3 kJ/mol. With GGGTACACGTGCTGTA the “relative binding free energy” value was -0.126 kJ/mol. With GAGGGCACGTGTCGTA the “relative binding free energy” value was -0.167 kJ/mol. For GCGAACACGTGTGGTG, the “relative binding free energy” value was 0.418 kJ/mol. For GTTTCCACGTGTTTGG, the “relative binding free energy” value was 0.251 kJ/mol. With CTTGCCACGTGGGTGT the “relative binding free energy” value was -1.3 kJ/mol. For TTAAGCACGTGGGCAG, the “relative binding free energy” value was -1.21 kJ/mol. For GGAGTCACGTGAGGGT, the “relative binding free energy” value was 1.21 kJ/mol. In the case of CGTTTCACGTGGGCCG, the “relative binding free energy” value is reported as 1 kJ/mol. ATGTCCACGTGAGATG was tested, and the “relative binding free energy” value was 1.21 kJ/mol. In the case of CAATGCACGTGTTTTG, the “relative binding free energy” value is reported as -0.126 kJ/mol. With TATGACACGTGTGGTT the “relative binding free energy” value was 0.46 kJ/mol. For TGCGGCACGTGACAGG, the “relative binding free energy” value was 0.293 kJ/mol. In the case of TCTAGCACGTGAAGGG, the “relative binding free energy” value is reported as 1 kJ/mol. With CGTTTCACGTGACTTT the “relative binding free energy” value was 1.46 kJ/mol. CTGACCACGTGGTGTT was tested, and the “relative binding free energy” value was 0 kJ/mol. With ATAATCACGTGATGGG the “relative binding free energy” value was 1.17 kJ/mol. In the case of TTGAGCACGTGAGGTT, the “relative binding free energy” value is reported as 1 kJ/mol. AGGGGCACGTGTGTCC was tested, and the “relative binding free energy” value was -0.628 kJ/mol. For GGAGGCACGTGCAAGT, the “relative binding free energy” value was -0.209 kJ/mol.

Reference: the BET-seq Pho4 binding data (Le et al. 2018)
